# Reference: PubChem BioAssay AID2546 (National Center for Advancing Translational Sciences (NCATS), 2010)
# Hit rate of the full screen: of about 310,000 compounds, about 11,000 (3.5%) were called active. Inconclusive means that the source gave no clear call. Such entries were picked first, then a sample of the others. Calls come from the whole dose curve; as a rule, active = well fitted inhibition curve with a large enough effect; inconclusive = small, poorly fitted or top-dose-only effect, or effect the other way; inactive = flat fitted curve, though single readings scatter. Potencies of inconclusive entries are left out as doubtful fits.
# Assay: VP16 counterscreen qHTS for inhibitors of ROR gamma transcriptional activity;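 note: Gal4-VP16 expression switched on by copper sulfate through the metallothionein promoter; nearly all actives have a fitted effect of over 50% in size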
# Details: Drosophila S2 Gal4-VP16 UAS-luciferase, luminescence, 20 h; activity, negative = inhibition: at 53.6 µM (top of the series)
# % is set by controls: 0 for no effect and ±100 for the full control effect; potency is the fitted concentration of half-maximal effect; tags give direction and shape of the fitted curve.
Compound,Potency,"activity, negative = inhibition"
O=C(c1cc(C2CC2)nc2ccc(Br)cc12)N1N=C(C(F)F)CC1(O)C(F)F (stereo not drawn),inactive,
O=[N+]([O-])c1ccc(CN2CCN(c3ccc(Cl)cc3)CC2)o1,inactive,
CC(C)(C)C1=CC(O)(c2ccccc2)C=C(C(C)(C)C)C1=O,"inconclusive [inhibitor, single point]",
COc1cccc(C(=O)Oc2ccccc2/C=C\C(=O)c2cc3ccccc3o2)c1,"inconclusive [inhibitor, single point]",
CCOc1ccc(NC(=O)CC2C(=O)N(c3ccc(OC)cc3)C(=O)N2CCc2ccc(OC)c(OC)c2)cc1 (stereo not drawn),inactive,
O=C(CSc1ccc(Cl)cc1)N1CCN(c2ccc([N+](=O)[O-])cc2Cl)CC1,"inconclusive [inhibitor, single point]",
CSc1cccc(NS(=O)(=O)c2ccc(C(C)=O)cc2)c1,"inconclusive [inhibitor, partial curve]",
O=NC1=C(c2c(O)[nH]c3ccccc23)CCCC1,inactive,
O=[N+]([O-])c1ccccc1N/N=C/c1c[nH]c2ccccc12,"inconclusive [inhibitor, single point]",
S=C1CCSc2ccc(Cl)cc2N1,active: 10 µM,
COC(=O)c1cccc(NC(=S)NCCC2=CCCCC2)c1,"inconclusive [inhibitor, partial curve]",
Cc1ccc(-c2csc(=S)n2CC(=O)OCC(=O)NCc2ccco2)cc1,"inconclusive [inhibitor, single point]",
CCOC(=O)c1cnc(-n2nc(C)cc2C)nc1Oc1ccccc1F,"inconclusive [inhibitor, single point]",
COc1ccc(CCNc2cc(N3CCN(C(=O)c4ccccc4F)CC3)ccc2[N+](=O)[O-])cc1OC,active: 10 µM,
OCCN1CCN(c2ncnc3c2c(-c2ccccc2)cn3-c2ccc(Br)cc2)CC1,"inconclusive [inhibitor, single point]",
COc1cccc(NC(=O)CN(C)C(=O)CC(C)c2ccccc2)c1 (stereo not drawn),inactive,
N#Cc1ccc(-c2cccs2)nc1SCc1cccnc1,inactive,
CC(=O)Oc1ccc(-c2cccc(C(=O)Oc3ccccc3)c2)cc1,"inconclusive [inhibitor, single point]",
O=C1CS/C(=C/C(=O)c2cccc(Cl)c2)N1,"inconclusive [inhibitor, single point]",
O=C(CCCn1c(SCc2cc(=O)n3ccccc3n2)nc2ccccc2c1=O)NCC1CCCO1 (stereo not drawn),inactive,
COC(C[C@H](O)CC(=O)[C@H](C)OCc1ccccc1)OC,"inconclusive [activator, partial curve]",
CCc1ccc(/C=C2\SC(=S)N(CCCC(=O)Nc3ccccc3C(=O)O)C2=O)cc1,active: 20 µM,
C/C(=N\NC(=S)Nc1ccc(C(C)C)cc1)c1ccc2c(c1)OCO2,"inconclusive [inhibitor, single point]",
COCC1CCN(C(=O)c2cc(COc3ccc(-n4cncn4)cc3)on2)CC1,inactive,
CCc1ccc(-c2cc(C(=O)Nc3ccc(S(=O)(=O)NC(C)=O)cc3)c3ccccc3n2)cc1,"inconclusive [inhibitor, single point]",

Compound,Potency,"activity, negative = inhibition"
O=C(CN1CCCCC1)NNc1nc(-c2ccccc2)c2cc(Cl)ccc2n1,active: 3.98 µM,
CCOC(=O)c1cnc(-n2nc(C)cc2C)nc1NNc1nc(C)cc(C)n1,"inconclusive [inhibitor, single point]",
CN(C)C(=O)c1ccc(-c2nccc(NCc3cccnc3)n2)cc1,inactive,
Cc1ccc(-n2nnnc2SCC(=O)c2cc(C)n(-c3cc(C)on3)c2C)c(C)c1,"inconclusive [inhibitor, single point]",
COc1ccc(-n2c(=O)c(CCc3ccccc3)nc3cnc(N4CCNCC4)nc32)cc1,"inconclusive [inhibitor, single point]",
COc1ccc(C(=O)Nc2ccc(S(=O)(=O)N3CCOCC3)cc2)cc1[N+](=O)[O-],inactive,
O=C(O)C(Cc1c[nH]c2ccccc12)NS(=O)(=O)c1cccc2nsnc12 (stereo not drawn),"inconclusive [inhibitor, full curve, poor fit]",
O=S(=O)(NCc1ccccn1)C(F)(F)F,"inconclusive [inhibitor, single point]",
Cc1ccccc1C(=O)NNC(=S)NC(=O)c1cccnc1,"inconclusive [inhibitor, single point]",
CC1=NN(C(N)=S)C(=O)C1N=Nc1ccc(O)cc1 (stereo not drawn),"inconclusive [inhibitor, partial curve, poor fit]",
Cc1nc(N/N=C\c2ccc3c(c2)OCO3)sc1C,"inconclusive [inhibitor, single point]",
Cc1cc(C(=O)NC(=S)Nc2ccccc2N2CCOCC2)ccc1[N+](=O)[O-],active: 14.1 µM,
CCCc1cc(=O)oc2cc(C)cc(OCC(=O)NCCN3CCOCC3)c12,inactive,
Cc1nc2ccccc2c(=O)n1/N=C/c1ccc([N+](=O)[O-])o1,"inconclusive [inhibitor, single point]",
CCN(CC)C(=O)c1oc2ccc(S(=O)(=O)N3CC(C)CC(C)C3)cc2c1C (stereo not drawn),"inconclusive [inhibitor, single point]",
Cc1ccc(-c2cc(-c3ccccc3Cl)[nH]n2)c(O)c1,"inconclusive [inhibitor, single point]",
CCOc1ccc(/C=N/NC(=O)C(=O)NCc2ccco2)cc1,inactive,
CCN(CC)S(=O)(=O)c1cccc(NC(=S)NC(=O)/C=C/c2ccc(S(=O)(=O)N3CCOCC3)cc2)c1,inactive,
Cc1ccc(OCC(=O)NNC(=S)NC(=O)C2CCCCC2)c(C)c1,inactive,
Cc1nn(-c2ccccc2)c2c1C(c1ccc(Cl)cc1)N(c1ccccc1)C(=O)N2 (stereo not drawn),inactive,
O=c1[nH][nH]c2cc(=O)n(-c3cccc(C(F)(F)F)c3)nc12,inactive,
COC(=O)[C@H](CC(C)C)NC(=O)Nc1cccc(Br)c1,"inconclusive [activator, single point]",
COc1ccc(C(=O)Nc2nnc(C3=COCCO3)o2)cc1,active: 2 µM,
Cc1ccc(-c2nc(COC(=O)c3c(C)noc3C)cs2)cc1,"inconclusive [inhibitor, single point]",
CCc1sc(C(=O)Nc2cccc(C(C)=O)c2)cc1C,"inconclusive [inhibitor, partial curve]",

Compound,Potency,"activity, negative = inhibition"
NNC(=O)c1ccc(COc2cccc3ccccc23)cc1,"inconclusive [inhibitor, single point]",
Cc1cccc(C)c1OCc1n[nH]c(=S)n1-c1ccccc1,"inconclusive [inhibitor, partial curve]",
COc1ccc(C(=O)Nc2ccc(C)cn2)c(OC)c1,active: 3.98 µM,
CCCc1cc(=O)n2[nH]c(C)c(-c3ccccc3)c2n1,"inconclusive [inhibitor, single point]",
COc1cc2c(cc1NC(=S)NC(=O)c1c(OC)cccc1OC)oc1ccccc12,"inconclusive [inhibitor, partial curve]",
Cc1ccc(C(=S)NCS(=O)(=O)c2ccc(C)cc2)cc1,active: 8.91 µM,
O=C(NC(=S)Nc1cc([N+](=O)[O-])ccc1Cl)c1ccccc1,"inconclusive [inhibitor, single point]",
S=C(/N=c1/sccn1Cc1ccccc1)NC1CC1,"inconclusive [inhibitor, single point]",
S=c1nc(Cc2ccccc2)[nH]c2ccccc12,active: 6.31 µM,
COC(=O)Cc1c(C)c2ccc(OCC(=O)NC3CCS(=O)(=O)C3)cc2oc1=O (stereo not drawn),inactive,
COC(=O)Nc1ccc(S(=O)(=O)NC2CCCCC2)cc1,inactive,
O=C(/C=C/c1ccccc1)CC(O)(c1ccccc1)C(F)(F)C(F)F (stereo not drawn),"inconclusive [inhibitor, single point]",
CN(C)C(=O)c1ccc(-c2cncnc2NCc2cccnc2)cc1,inactive,
O=C(Nc1ccc([N+](=O)[O-])cc1)C1CC1(c1ccccc1)c1ccccc1 (stereo not drawn),"inconclusive [inhibitor, single point]",
O=C(Nc1ccccc1)c1ccc(Nc2c([N+](=O)[O-])cc([N+](=O)[O-])c3ccccc23)cc1,inactive,
COc1cccc(SCC2(O)CCN(C(=O)c3ccc(Cl)cc3)CC2)c1,,inactive: -21.5% [at 10 µM]
Cc1ccc(C)c(OCC(=O)Nc2ccccc2N2CCCC2)c1,inactive,
CCCC/C=C/C(NC(=O)c1ccccc1)c1ccccc1 (stereo not drawn),"inconclusive [inhibitor, single point]",
Cc1ccccc1OCc1nc2ccccc2c(=O)n1/N=C/c1cn[nH]c1-c1ccc(Br)cc1,"inconclusive [inhibitor, single point]",
Cc1cccc(NC(=O)c2cc(-c3ccccn3)nc3ccccc23)c1C,"inconclusive [inhibitor, single point]",
O=C(NCc1cccnc1)c1nc(-c2cccs2)no1,"inconclusive [activator, single point]",
CC(C)OCCCNC(=S)Nc1ccc(S(N)(=O)=O)cc1,active: 35.5 µM,
CCCCCC(=O)Nc1ccc(C(=O)N/N=C/c2ccc([N+](=O)[O-])cc2)cc1,"inconclusive [inhibitor, single point]",
